According to PubChem BioAssay AID1768 (National Center for Advancing Translational Sciences (NCATS), 2009):
In all, about 270,000 compounds went through this assay and about 620 (0.23%) were called active. This list was built around the results that the source calls inconclusive (neither active nor inactive); the mix of calls is not that of the screen. Calls follow the shape of the dose curve; as a rule, active = well fitted inhibition curve with a large enough effect in the polarisation, with a control signal flat (not every such curve was filed as active); inconclusive = small, poorly fitted or top-dose-only effect, or effect the other way, or a change in a side signal; inactive = no such curve, though single readings can be large or run the other way; the % refers to the polarisation. A potency beside an inconclusive call is a rough fit, not a confirmed value. A note “side channel” means that the fit belongs to a control or component signal, not to the main read-out.
Potency is read from the fitted curve at half-maximal effect; tags tell the direction and shape of the fitted curve or compound fluorescence and quenching.

Each compound was assayed against Menin (Homo sapiens) (UniProt O00255) (assay: qHTS Assay for Inhibitors Targeting the Menin-MLL Interaction in MLL Related Leukemias: Competition With Texas Red Labeled MLL-derived Mutant Peptide). Conditions: fluorescence polarization; series mostly up to 61.6 µM.
UniProt O00255, sequence (O00255 whole entry, looked up): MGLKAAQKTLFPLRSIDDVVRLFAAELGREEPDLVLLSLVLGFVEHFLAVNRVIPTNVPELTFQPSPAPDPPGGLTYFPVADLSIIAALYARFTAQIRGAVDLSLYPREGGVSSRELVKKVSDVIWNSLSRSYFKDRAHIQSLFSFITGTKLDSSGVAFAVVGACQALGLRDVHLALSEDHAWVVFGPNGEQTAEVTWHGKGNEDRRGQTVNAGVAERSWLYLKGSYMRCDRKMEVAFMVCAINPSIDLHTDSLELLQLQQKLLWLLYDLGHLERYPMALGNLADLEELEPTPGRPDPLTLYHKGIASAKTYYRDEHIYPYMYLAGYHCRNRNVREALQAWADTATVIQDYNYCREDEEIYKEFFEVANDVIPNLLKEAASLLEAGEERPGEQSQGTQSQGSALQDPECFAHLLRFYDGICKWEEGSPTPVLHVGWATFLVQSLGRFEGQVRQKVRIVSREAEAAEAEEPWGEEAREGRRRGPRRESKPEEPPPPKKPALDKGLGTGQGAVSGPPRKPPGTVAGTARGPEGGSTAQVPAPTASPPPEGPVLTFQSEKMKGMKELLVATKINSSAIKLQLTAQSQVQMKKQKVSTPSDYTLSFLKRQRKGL
COc1ccc(NS(=O)(=O)c2ccc(-n3nnc4ccccc43)c([N+](=O)[O-])c2)cc1 was tested, and the Potency was inconclusive: 28.2 µM [quencher, side channel, single point]. With Cc1ccsc1/C=N/NC(=O)c1nnn(-c2nonc2N)c1C the Potency was inconclusive: 39.8 µM [fluorescent, side channel, single point]. In the case of O=C1CSC(=S)N1/N=C/c1ccc(O)c([N+](=O)[O-])c1, the Potency is reported as inconclusive: 22.4 µM [quencher, side channel, partial curve]. In the case of CCN1C(=O)/C(=C/c2ccc(OCc3ccc(C(=O)O)cc3)c(Cl)c2)NC1=S, the Potency is reported as inconclusive: 25.1 µM [quencher, side channel, partial curve]. In the case of Fc1ccccc1/C=N/n1c(C2CCCCC2)n[nH]c1=S, the Potency is reported as inconclusive: 10 µM [inhibitor, partial curve]. With COCCNC(=O)CSc1cc(-c2ccccc2)c2ccc(OC)cc2n1 the Potency was inconclusive: 20 µM [inhibitor, single point]. In the case of O=C(/C=C/c1ccco1)Nc1ccc(Oc2ccc(Cl)cc2)cc1, the Potency is reported as inconclusive: 39.8 µM [inhibitor, single point]. For COc1ccccc1CNc1cc(-c2ccccc2C)ncn1, the Potency was inconclusive: 3.55 µM [inhibitor, full curve, poor fit]. In the case of COc1ccc(NC(=O)c2ccc3ccccc3c2)cc1NS(=O)(=O)c1ccc(F)cc1, the Potency is reported as inconclusive: 31.6 µM [quencher, side channel, partial curve]. For COc1ccccc1NC(=S)NCCc1ccc(Cl)cc1, the Potency was inconclusive: 35.5 µM [quencher, side channel, single point]. With Cc1ccc(-c2nc(-c3ccc(Cl)cc3)sc2CC(=O)O)c(C)c1 the Potency was inconclusive: 20 µM [quencher, side channel, single point]. With COc1cccc(C(=O)NC2CC3CCCC(C2)N3CC(=O)Nc2ccccc2)c1 (configuration not stated) the Potency was inconclusive: 5.01 µM [inhibitor, partial curve]. With Cc1ccc(CN(c2ccc(C(=O)Nc3ccc4c(c3)OCO4)cc2)S(C)(=O)=O)cc1 the Potency was inconclusive: 14.1 µM [quencher, side channel, partial curve]. For Fc1ccc(C2CC(c3cccs3)=NN2c2ccccc2)cc1 (configuration not stated), the Potency was inconclusive: 6.31 µM [quencher, side channel, partial curve]. In the case of Cc1ccc(N=C2NC(=O)/C(=C/C=C/c3ccco3)S2)cc1, the Potency is reported as inconclusive: 14.1 µM [quencher, side channel, partial curve]. For O=C(Nc1ccccc1)Nc1ccc2c(c1)CCC2, the Potency was inconclusive: 3.55 µM [quencher, side channel, partial curve]. With Cc1ccc2nc(NC(=O)Cc3cccs3)sc2c1 the Potency was inconclusive: 25.1 µM [quencher, side channel, partial curve]. With COc1ccc2cc(C(=O)N/N=C/c3sc4ccccc4c3O)ccc2c1 the Potency was inconclusive: 20 µM [quencher, side channel, partial curve]. With COc1cc(OC)c(C(=O)O/N=C(\N)c2cccc(C)c2)cc1OC the Potency was inconclusive: 8.91 µM [inhibitor, single point]. For Cc1cc(NC(=O)COc2ccc3ccccc3c2)no1, the Potency was inconclusive: 31.6 µM [fluorescent, side channel, single point]. In the case of O=C1c2ccccc2C(=O)N1c1ccc(Cl)cc1, the Potency is reported as inconclusive: 31.6 µM [inhibitor, single point]. For Cc1nnc(NC(=O)c2sc3ccccc3c2Cl)s1, the Potency was inconclusive: 31.6 µM [quencher, side channel, single point]. O=C(Nc1nnc(SCC(=O)N2CCCc3ccccc32)s1)c1ccc2ccccc2c1 was tested, and the Potency was inconclusive: 39.8 µM [inhibitor, single point]. With O=C1CC[C@@H](CN(Cc2ccccn2)Cc2nc(Cc3cccc(C(F)(F)F)c3)no2)N1 the Potency was inconclusive: 6.31 µM [fluorescent, side channel, partial curve]. In the case of Fc1cccc2sc(Nc3nnc(-c4ccco4)o3)nc12, the Potency is reported as inconclusive: 12.6 µM [quencher, side channel, partial curve]. For CCCCCCCCCCCC(=O)OCC(O)CO (configuration not stated), the Potency was “inactive”. Clc1ccccc1Cc1noc(CN2CCCCC2CCc2ccccn2)n1 (configuration not stated) was tested, and the Potency was inconclusive: 2.51 µM [fluorescent, side channel, partial curve]. In the case of O=C(Nn1c(O)c(C=C2N=c3ccccc3=N2)sc1=S)c1cccc(Cl)c1, the Potency is reported as inconclusive: 20 µM [quencher, side channel, partial curve]. CC(C)NC(=O)N1CC(c2ccccc2)C(c2ccc(Cl)cc2)=N1 (configuration not stated) was tested, and the Potency was inconclusive: 5.01 µM [inhibitor, full curve]. With Cc1c(-n2c(SCC(=O)O)nnc2-c2ccccc2Cl)c(=O)n(-c2ccccc2)n1C the Potency was “inactive”. With COc1cccc(/C=C/C(=O)Nc2ccc3nc4n(c(=O)c3c2)CCCC4)c1OC the Potency was inconclusive: 39.8 µM [inhibitor, single point]. For NC(=O)c1cccc(NC(=O)Nc2ccc(Cl)cc2)c1, the Potency was inconclusive: 39.8 µM [inhibitor, single point]. In the case of O=C(Nc1ccccc1N1CCOCC1)c1ccccc1NS(=O)(=O)c1ccc(F)c(F)c1, the Potency is reported as inconclusive: 28.2 µM [quencher, side channel, single point]. With COc1ccc(O)c(C(=O)CC(=O)c2ccccc2)c1 the Potency was inconclusive: 17.8 µM [quencher, side channel, single point]. For CCCN1CC=C2C(C#N)=C(N)C(C#N)(C#N)C(c3cc(OC)ccc3OC)C2C1 (configuration not stated), the Potency was “inactive”. For CC(C)(C)C(=O)/C=c1\[nH]c(=O)/c(=C\c2ccc(C#N)cc2)s1, the Potency was inconclusive: 22.4 µM [quencher, side channel, partial curve]. In the case of O=c1c2c(-c3ccccc3)csc2nc2c3ccccc3c(NCCN3CCOCC3)nn12, the Potency is reported as inconclusive: 0.631 µM [fluorescent, side channel, full curve, poor fit]. With CCOc1cccc(-c2nn3c(-c4cc(C)[nH]n4)nnc3s2)c1 the Potency was inconclusive: 28.2 µM [inhibitor, single point]. For CCOc1ccccc1Oc1cn[nH]c1-c1ccc(OC)cc1O, the Potency was inconclusive: 17.8 µM [quencher, single point]. With CCOc1cc(/C=C(\C#N)c2[nH]nc(N)c2C#N)ccc1O the Potency was inconclusive: 12.6 µM [quencher, side channel, partial curve]. Cc1ccc(NC(=O)Nc2ccc(Cl)cc2)c(Br)c1 was tested, and the Potency was inconclusive: 39.8 µM [inhibitor, single point]. COC1CC2CCC(C)[C@](O)(O2)C(=O)C(=O)N2CCCCC2C(=O)OC(C(C)CC2CCC(O)C(OC)C2)CC(=O)C(C)/C=C(/C)C(O)C(OC)C(=O)C(C)CC(C)C=CC=C/C=C\1C (some centres not stated) was tested, and the Potency was “inactive”. In the case of CCCCC(=O)Nc1nc2c(OC)cc([N+](=O)[O-])cc2s1, the Potency is reported as inconclusive: 14.1 µM [quencher, partial curve]. Cc1ccccc1C1CC(=O)Oc2cc(O)ccc21 (configuration not stated) was tested, and the Potency was inconclusive: 35.5 µM [fluorescent, side channel, partial curve]. O=C(CN1C(=O)CCSc2ccc(S(=O)(=O)N3CCCC3)cc21)Nc1ccccc1 was tested, and the Potency was inconclusive: 39.8 µM [fluorescent, side channel, single point]. With CCN(CC(=O)Nc1ccc2c(c1)OCCO2)Cc1cc(=O)oc2cc(C)c(C)cc12 the Potency was inconclusive: 6.31 µM [inhibitor, full curve, poor fit]. For O=C(Nc1cc(Sc2ccccn2)cc([N+](=O)[O-])c1)c1ccc([N+](=O)[O-])cc1, the Potency was inconclusive: 11.2 µM [quencher, side channel, partial curve]. For COc1ccc2oc(=O)c(/C(C)=N/Nc3nc(-c4cc(C)ccc4C)cs3)cc2c1, the Potency was inconclusive: 20 µM [quencher, side channel, partial curve]. For O=C(C1CC1)N1CCc2cc(Br)cc(S(=O)(=O)NCCCN3CCCCC3)c21, the Potency was inconclusive: 39.8 µM [inhibitor, single point]. With Cc1cccc(C(=O)Nc2cccc(-c3cnc4ccccc4n3)c2)c1 the Potency was inconclusive: 31.6 µM [quencher, side channel, single point]. In the case of COC(=O)Nc1ccc(S(=O)(=O)N2CCCc3cccc(O)c32)cc1, the Potency is reported as inconclusive: 20 µM [quencher, single point]. For CC1(C)C=C2C(=NN(c3ccccc3)C(N)=C2C#N)CO1, the Potency was inconclusive: 39.8 µM [inhibitor, single point]. For COc1cc(/C=N/NC(=O)c2ccc(CN3c4cccc5cccc(c45)S3(=O)=O)cc2)cc(OC)c1O, the Potency was inconclusive: 12.6 µM [quencher, side channel, partial curve]. In the case of CC(C)NC(=O)N1CC2(CCN(C(=O)c3ccncc3)CC2)C1, the Potency is reported as “inactive”. With Cc1ccc2cccc(SCC(=O)Nc3ccc(F)cc3)c2n1 the Potency was inconclusive: 39.8 µM [inhibitor, single point]. In the case of Cc1ccc(-c2cc(-c3ccc(C)cc3O)[nH]n2)cc1, the Potency is reported as inconclusive: 12.6 µM [quencher, side channel, partial curve]. Cn1c(=O)oc2cc(S(=O)(=O)N3CCC(C(=O)NCc4ccccc4Cl)CC3)ccc21 was tested, and the Potency was inconclusive: 22.4 µM [fluorescent, side channel, partial curve].
